# This is one part of the list.
# B1: Gal 3 (Homo sapiens), P17931 (protein)
# chain: MADNFSLHDALSGSGNPNPQGWPGAWGNQPAGAGGYPGASYPGAYPGQAPPGAYPGQAPPGAYHGAPGAYPGAPAPGVYPGPPSGPGAYPSSGQPSAPGAYPATGPYGAPAGPLIVPYNLPLPGGVVPRMLITILGTVKPNANILDFQRGNDVAFHFNPRFNENNRRVIVCNTLLDNNWGREERQSVFPFESGKPFKIQVLVEPDHFKVAVNDAHLLQYNHRVKKLNEISKLGISGDIDLTSASYTMI
# What was measured:
# Assay in all cases: glycan array binding signal (z-score within array); higher = stronger binding
# Settings in all cases: glycan notation: IUPAC condensed, linker removed; mutation: K176L
# [1] = molecular target: Fuc(a1-2)Gal
# Outline: (§1)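 The Consortium for Functional Glycomics database supplied 3228 glycan arrays, of which those lacking an available protein sequence were dropped. The binding signal, a within-array Z-score, was averaged across arrays of the same protein sequence and across linkers. Negative scores can be read as non-binding.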
# [2] = molecular target: Fuc(a1-2)Gal(b1-3)GalNAc
# Outline: as §1
# [3] = molecular target: Fuc(a1-2)Gal(b1-3)GalNAc(a1-3)[Fuc(a1-2)]Gal(b1-4)Glc
# Outline: as §1
# [4] = molecular target: Fuc(a1-2)Gal(b1-3)GalNAc(a1-3)[Fuc(a1-2)]Gal(b1-4)GlcNAc
# Outline: as §1
# [5] = molecular target: Fuc(a1-2)Gal(b1-3)GalNAc(b1-3)Gal
# Outline: as §1
# [6] = molecular target: Fuc(a1-2)Gal(b1-3)GalNAc(b1-3)Gal(a1-4)Gal(b1-4)Glc
# Outline: as §1
# [7] = molecular target: Fuc(a1-2)Gal(b1-3)GalNAc(b1-4)[Neu5Ac(a2-3)]Gal(b1-4)Glc
# Outline: as §1
# [8] = molecular target: Fuc(a1-2)Gal(b1-3)GlcNAc
# Outline: as §1
# [9] = molecular target: Fuc(a1-2)Gal(b1-3)GlcNAc(b1-2)Man(a1-3)[Fuc(a1-2)Gal(b1-3)GlcNAc(b1-2)Man(a1-6)]Man(b1-4)GlcNAc(b1-4)GlcNAc
# Outline: as §1
# [10] = molecular target: Fuc(a1-2)Gal(b1-3)GlcNAc(b1-3)Gal(b1-4)Glc
# Outline: as §1
# [11] = molecular target: Fuc(a1-2)Gal(b1-3)GlcNAc(b1-3)[Fuc(a1-3)[Gal(b1-4)]GlcNAc(b1-6)]Gal(b1-4)Glc
# Outline: as §1
# [12] = molecular target: Fuc(a1-2)Gal(b1-3)[Fuc(a1-4)]GlcNAc
# Outline: as §1
# [13] = molecular target: Fuc(a1-2)Gal(b1-3)[Fuc(a1-4)]GlcNAc(b1-2)Man(a1-3)[Fuc(a1-2)Gal(b1-3)[Fuc(a1-4)]GlcNAc(b1-2)Man(a1-6)]Man(b1-4)GlcNAc(b1-4)GlcNAc
# Outline: as §1
# [14] = molecular target: Fuc(a1-2)Gal(b1-3)[Fuc(a1-4)]GlcNAc(b1-3)[Fuc(a1-3)[Gal(b1-4)]GlcNAc(b1-6)]Gal(b1-4)Glc
# Outline: as §1
# [15] = molecular target: Fuc(a1-2)Gal(b1-3)[Fuc(a1-4)]GlcNAc(b1-3)[Gal(b1-4)GlcNAc(b1-6)]Gal(b1-4)Glc
# Outline: as §1
# [16] = molecular target: Fuc(a1-2)Gal(b1-4)Glc
# Outline: as §1
# [17] = molecular target: Fuc(a1-2)Gal(b1-4)Glc6S
# Outline: as §1
# [18] = molecular target: Fuc(a1-2)Gal(b1-4)GlcNAc
# Outline: as §1
# [19] = molecular target: Fuc(a1-2)Gal(b1-4)GlcNAc(b1-2)Man(a1-3)[Fuc(a1-2)Gal(b1-4)GlcNAc(b1-2)Man(a1-6)]Man(b1-4)GlcNAc(b1-4)GlcNAc
# Outline: as §1
# [20] = molecular target: Fuc(a1-2)Gal(b1-4)GlcNAc(b1-3)Gal(b1-4)GlcNAc
# Outline: as §1
# [21] = molecular target: Fuc(a1-2)Gal(b1-4)GlcNAc(b1-3)Gal(b1-4)GlcNAc(b1-3)Gal(b1-4)GlcNAc
# Outline: as §1
# [22] = molecular target: Fuc(a1-2)Gal(b1-4)GlcNAc(b1-3)GalNAc
# Outline: as §1
# [23] = molecular target: Fuc(a1-2)Gal(b1-4)GlcNAc6S
# Outline: as §1
# [24] = molecular target: Fuc(a1-2)Gal(b1-4)[Fuc(a1-3)]GlcNAc
# Outline: as §1
# [25] = molecular target: Fuc(a1-2)Gal(b1-4)[Fuc(a1-3)]GlcNAc(b1-2)Man(a1-3)[Fuc(a1-2)Gal(b1-4)[Fuc(a1-3)]GlcNAc(b1-2)Man(a1-6)]Man(b1-4)GlcNAc(b1-4)GlcNAc
# Outline: as §1
# [26] = molecular target: Fuc(a1-2)Gal(b1-4)[Fuc(a1-3)]GlcNAc(b1-3)Gal(b1-4)[Fuc(a1-3)]GlcNAc
# Outline: as §1
# [27] = molecular target: Fuc(a1-2)Gal(b1-4)[Fuc(a1-3)]GlcNAc(b1-3)Gal(b1-4)[Fuc(a1-3)]GlcNAc(b1-3)Gal(b1-4)[Fuc(a1-3)]GlcNAc
# Outline: as §1
# [28] = molecular target: Fuc(a1-2)Gal6S(b1-4)Glc
# Outline: as §1
# [29] = molecular target: Fuc(a1-2)Gal6S(b1-4)Glc6S
# Outline: as §1
# [30] = molecular target: Fuc(a1-2)Gal6S(b1-4)GlcNAc
# Outline: as §1
# [31] = molecular target: Fuc(a1-2)[Gal(a1-3)]Gal
# Outline: as §1
# [32] = molecular target: Fuc(a1-2)[Gal(a1-3)]Gal(b1-3)GlcNAc
# Outline: as §1
# [33] = molecular target: Fuc(a1-2)[Gal(a1-3)]Gal(b1-3)GlcNAc(b1-2)Man(a1-3)[Fuc(a1-2)[Gal(a1-3)]Gal(b1-3)GlcNAc(b1-2)Man(a1-6)]Man(b1-4)GlcNAc(b1-4)GlcNAc
# Outline: as §1
# [34] = molecular target: Fuc(a1-2)[Gal(a1-3)]Gal(b1-4)Glc
# Outline: as §1
# [35] = molecular target: Fuc(a1-2)[Gal(a1-3)]Gal(b1-4)GlcNAc
# Outline: as §1
# [36] = molecular target: Fuc(a1-2)[Gal(a1-3)]Gal(b1-4)GlcNAc(b1-2)Man(a1-3)[Fuc(a1-2)[Gal(a1-3)]Gal(b1-4)GlcNAc(b1-2)Man(a1-6)]Man(b1-4)GlcNAc(b1-4)GlcNAc
# Outline: as §1
# [37] = molecular target: Fuc(a1-2)[Gal(a1-3)]Gal(b1-4)[Fuc(a1-3)]GlcNAc
# Outline: as §1
# [38] = molecular target: Fuc(a1-2)[Gal(a1-4)]Gal(b1-4)GlcNAc
# Outline: as §1
# [39] = molecular target: Fuc(a1-2)[GalNAc(a1-3)]Gal
# Outline: as §1
# [40] = molecular target: Fuc(a1-2)[GalNAc(a1-3)]Gal(b1-3)GalNAc(a1-3)[Fuc(a1-2)]Gal(b1-4)GlcNAc
# Outline: as §1
# [41] = molecular target: Fuc(a1-2)[GalNAc(a1-3)]Gal(b1-3)GlcNAc
# Outline: as §1
# [42] = molecular target: Fuc(a1-2)[GalNAc(a1-3)]Gal(b1-3)GlcNAc(b1-2)Man(a1-3)[Fuc(a1-2)[GalNAc(a1-3)]Gal(b1-3)GlcNAc(b1-2)Man(a1-6)]Man(b1-4)GlcNAc(b1-4)GlcNAc
# Outline: as §1
# [43] = molecular target: Fuc(a1-2)[GalNAc(a1-3)]Gal(b1-4)Glc
# Outline: as §1
# [44] = molecular target: Fuc(a1-2)[GalNAc(a1-3)]Gal(b1-4)GlcNAc
# Outline: as §1
# [45] = molecular target: Fuc(a1-2)[GalNAc(a1-3)]Gal(b1-4)GlcNAc(b1-2)Man(a1-3)[Fuc(a1-2)[GalNAc(a1-3)]Gal(b1-4)GlcNAc(b1-2)Man(a1-6)]Man(b1-4)GlcNAc(b1-4)GlcNAc
# Outline: as §1
# [46] = molecular target: Fuc(a1-2)[GalNAc(a1-3)]Gal(b1-4)GlcNAc(b1-3)Gal(b1-4)GlcNAc
# Outline: as §1
# [47] = molecular target: Fuc(a1-2)[GalNAc(a1-3)]Gal(b1-4)GlcNAc(b1-3)Gal(b1-4)GlcNAc(b1-3)Gal(b1-4)GlcNAc
# Outline: as §1
# [48] = molecular target: Fuc(a1-2)[GalNAc(a1-3)]Gal(b1-4)[Fuc(a1-3)]GlcNAc
# Outline: as §1
# [49] = molecular target: Fuc(a1-2)[GalNAc(a1-4)]Gal(b1-4)GlcNAc
# Outline: as §1
# [50] = molecular target: Fuc(a1-2)[GalNAc(b1-3)]Gal
# Outline: as §1
# [51] = molecular target: Fuc(a1-3)GlcNAc
# Outline: as §1
# [52] = molecular target: Fuc(a1-3)[Gal(b1-4)]Glc6S
# Outline: as §1
# [53] = molecular target: Fuc(a1-3)[Gal(b1-4)]GlcNAc
# Outline: as §1
# [54] = molecular target: Fuc(a1-3)[Gal(b1-4)]GlcNAc(b1-2)Man(a1-3)[Fuc(a1-3)[Gal(b1-4)]GlcNAc(b1-2)Man(a1-6)]Man(b1-4)GlcNAc(b1-4)GlcNAc
# Outline: as §1
# [55] = molecular target: Fuc(a1-3)[Gal(b1-4)]GlcNAc(b1-3)Gal(b1-3)[Fuc(a1-4)]GlcNAc
# Outline: as §1
# [56] = molecular target: Fuc(a1-3)[Gal(b1-4)]GlcNAc(b1-3)GalNAc
# Outline: as §1
# [57] = molecular target: Fuc(a1-3)[Gal(b1-4)]GlcNAc(b1-4)Gal(b1-4)[Fuc(a1-3)]GlcNAc
# Outline: as §1
# [58] = molecular target: Fuc(a1-3)[Gal(b1-4)]GlcNAc(b1-4)Gal(b1-4)[Fuc(a1-3)]GlcNAc(b1-4)Gal(b1-4)[Fuc(a1-3)]GlcNAc
# Outline: as §1
# [59] = molecular target: Fuc(a1-3)[Gal(b1-4)]GlcNAc(b1-6)[Gal(b1-3)GlcNAc(b1-3)]Gal(b1-4)Glc
# Outline: as §1
# [60] = molecular target: Fuc(a1-3)[Gal(b1-4)]GlcNAc6S
# Outline: as §1
binder,measurement,setting,value
B1,glycan array binding signal (z-score),[1],-0.266
same,glycan array binding signal (z-score),[2],-0.262
same,glycan array binding signal (z-score),[3],-0.261
same,glycan array binding signal (z-score),[4],-0.268
same,glycan array binding signal (z-score),[5],-0.267
same,glycan array binding signal (z-score),[6],-0.259
same,glycan array binding signal (z-score),[7],-0.267
same,glycan array binding signal (z-score),[8],-0.077
same,glycan array binding signal (z-score),[9],-0.266
same,glycan array binding signal (z-score),[10],1.58
same,glycan array binding signal (z-score),[11],-0.27
same,glycan array binding signal (z-score),[12],-0.275
same,glycan array binding signal (z-score),[13],-0.251
same,glycan array binding signal (z-score),[14],-0.258
same,glycan array binding signal (z-score),[15],-0.271
same,glycan array binding signal (z-score),[16],-0.263
same,glycan array binding signal (z-score),[17],-0.267
same,glycan array binding signal (z-score),[18],-0.23
same,glycan array binding signal (z-score),[19],0.996
same,glycan array binding signal (z-score),[20],5.06
same,glycan array binding signal (z-score),[21],5.51
same,glycan array binding signal (z-score),[22],-0.266
same,glycan array binding signal (z-score),[23],-0.263
same,glycan array binding signal (z-score),[24],-0.266
same,glycan array binding signal (z-score),[25],-0.257
same,glycan array binding signal (z-score),[26],-0.263
same,glycan array binding signal (z-score),[27],-0.232
same,glycan array binding signal (z-score),[28],-0.268
same,glycan array binding signal (z-score),[29],-0.272
same,glycan array binding signal (z-score),[30],-0.268
same,glycan array binding signal (z-score),[31],-0.269
same,glycan array binding signal (z-score),[32],1.19
same,glycan array binding signal (z-score),[33],5.21
same,glycan array binding signal (z-score),[34],0.593
same,glycan array binding signal (z-score),[35],0.699
same,glycan array binding signal (z-score),[36],7.87
same,glycan array binding signal (z-score),[37],-0.262
same,glycan array binding signal (z-score),[38],-0.269
same,glycan array binding signal (z-score),[39],-0.267
same,glycan array binding signal (z-score),[40],-0.265
same,glycan array binding signal (z-score),[41],0.019
same,glycan array binding signal (z-score),[42],1.65
same,glycan array binding signal (z-score),[43],-0.253
same,glycan array binding signal (z-score),[44],0.393
same,glycan array binding signal (z-score),[45],3.09
same,glycan array binding signal (z-score),[46],3.26
same,glycan array binding signal (z-score),[47],5.28
same,glycan array binding signal (z-score),[48],-0.264
same,glycan array binding signal (z-score),[49],-0.26
same,glycan array binding signal (z-score),[50],-0.259
same,glycan array binding signal (z-score),[51],-0.261
same,glycan array binding signal (z-score),[52],-0.27
same,glycan array binding signal (z-score),[53],-0.265
same,glycan array binding signal (z-score),[54],-0.271
same,glycan array binding signal (z-score),[55],-0.264
same,glycan array binding signal (z-score),[56],-0.26
same,glycan array binding signal (z-score),[57],-0.258
same,glycan array binding signal (z-score),[58],-0.273
same,glycan array binding signal (z-score),[59],-0.265
same,glycan array binding signal (z-score),[60],-0.265

# Reference: the supplement of paper PMC8728848
